Measurements: the supplement of paper PMC9446081
The whole screen tested about 39,000 compounds, of which about 220 (0.56%) showed activity. The list shows a part of the results.

test system: Escherichia coli K-12 BW25113; test: relative growth (OD600 normalised to plate interquartile mean) (fraction); higher = less growth inhibition, active = 0.2 or less; conditions: 50 µM; LB; incubation time: overnight (16-24 h)
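Further: static incubation at 37 °C against the wild-type strain, values averaged over two biological replicates.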

Q: For COc1ccc(NC(=O)N(C)C[C@H]2Oc3ccc(NC(=O)C4CC4)cc3CC(=O)N([C@H](C)CO)C[C@@H]2C)cc1, which relative growth is on record?
A: inactive: 0.872

Q: C[C@@H]1CCCCO[C@@H](CN(C)S(=O)(=O)c2ccc(F)cc2)[C@H](C)CN([C@H](C)CO)C(=O)c2cc(NC(=O)Nc3ccc(F)cc3)ccc2O1 was tested. Which relative growth did it give?
A: inactive: 1.02

Q: With C[C@H](CO)N1C[C@H](C)[C@@H](CN(C)C(=O)C2CCCCC2)OCCCC[C@H](C)Oc2ccc(NC(=O)Nc3ccccc3)cc2C1=O as the molecule, how does the relative growth read?
A: inactive: 1.02

Q: Which relative growth does the source give for CN1CCN(C(=O)C[C@@H]2CC[C@@H](NC(=O)Cc3ccccn3)[C@H](CO)O2)CC1 here?
A: inactive: 0.994

Q: O=C(O)C(O)C(O)C(O)C(O)C(=O)O (stereo not drawn) was tested. Which relative growth did it give?
A: inactive: 1.07

Q: Which relative growth does the source give for C[C@H](CO)N1C[C@H](C)[C@@H](CN(C)C(=O)Nc2ccc3c(c2)OCO3)OCc2cn(nn2)CCCC1=O here?
A: inactive: 0.994

Q: How did the relative growth turn out when CC12CCC(CC1)C(C)(C)O2 was run?
A: inactive: 1.07

Q: With CC(C)CC#Cc1ccc2c(c1)O[C@H](CN(C)CC1CCOCC1)[C@@H](C)CN([C@@H](C)CO)S2(=O)=O as the molecule, how does the relative growth read?
A: inactive: 1.03

Q: Which relative growth does the source give for C[C@H]1CN([C@@H](C)CO)S(=O)(=O)c2ccc(-c3cccc(F)c3)cc2O[C@@H]1CN(C)S(C)(=O)=O here?
A: inactive: 1

Q: C[C@@H]1CN([C@@H](C)CO)S(=O)(=O)c2ccc(C#Cc3cccc(F)c3)cc2O[C@H]1CN(C)S(=O)(=O)c1cn(C)cn1 was tested. Which relative growth did it give?
A: inactive: 1.03

Q: Which relative growth does the source give for C[C@H](CO)N1C[C@H](C)[C@H](CN(C)C(=O)c2ccncc2)Oc2cc(C#Cc3ccncc3)ccc2S1(=O)=O here?
A: inactive: 0.992

Q: For C[C@H](CO)N1C[C@H](C)[C@H](CN(C)C(=O)c2cnccn2)Oc2cc(Br)ccc2S1(=O)=O, which relative growth is on record?
A: inactive: 0.993

Q: How did the relative growth turn out when O=C(C[C@@H]1C[C@H]2c3cc(NS(=O)(=O)c4ccc(F)cc4)ccc3O[C@H]2[C@H](CO)O1)NC1CCCC1 was run?
A: inactive: 0.986

Q: Which relative growth does the source give for Cl.Clc1ccc(Cn2c(CN3CCCC3)nc3ccccc32)cc1 here?
A: inactive: 0.92

Q: C[C@H]1CN([C@@H](C)CO)C(=O)Cc2cc(NC(=O)C3CC3)ccc2O[C@@H]1CN(C)S(=O)(=O)c1ccccc1 was tested. Which relative growth did it give?
A: inactive: 0.998

Q: Nc1ccc(/C=C/C(=O)NCc2cc3cc(-c4ccc(C(=O)N5CCC(F)(F)CC5)cc4)cc(-c4ccc(F)cc4)c3o2)cn1 was tested. Which relative growth did it give?
A: inactive: 1.02

Q: How did the relative growth turn out when CCCN(C)C[C@H]1OCCCC[C@H](C)Oc2ccc(NC(=O)Cc3ccccc3)cc2C(=O)N([C@H](C)CO)C[C@H]1C was run?
A: inactive: 0.977

Q: Which relative growth does the source give for CC(=O)NCCCC[C@@H]1NC(=O)[C@@H]2C[C@H](C(=O)NCCCCN(C)C)[C@H](c3ccc(O)cc3)N2C1=O here?
A: inactive: 0.996

Q: Which relative growth does the source give for Cc1cc(CC(=O)O)n(C)c1C(=O)c1ccc(Cl)cc1 here?
A: inactive: 1.1

Q: CN(C)c1nc2c([nH]1)c(=O)[nH]c(=O)n2C was tested. Which relative growth did it give?
A: inactive: 0.998

Q: For O=C1CN(N=Cc2ccc([N+](=O)[O-])o2)C(=O)N1, which relative growth is on record?
A: active: 0.0462

Q: Which relative growth does the source give for CCCNC(=O)N1C[C@H](O)COC[C@@H]2O[C@@H](CC(=O)N3CCN(C)CC3)CC[C@H]21 here?
A: inactive: 0.98

Q: Which relative growth does the source give for Cc1ccc(S(=O)(=O)N(C)C[C@H]2OCCCC[C@H](C)Oc3ccc(NC(=O)c4ccccc4)cc3C(=O)N([C@@H](C)CO)C[C@H]2C)cc1 here?
A: inactive: 0.848

Q: C=CCSc1nc(=O)cc(N)[nH]1 was tested. Which relative growth did it give?
A: inactive: 0.961

Q: How did the relative growth turn out when O=C(C[C@@H]1CC[C@@H]2[C@H](COC[C@H](O)CN2C(=O)Nc2ccc(Cl)c(Cl)c2)O1)NCc1ccncc1 was run?
A: inactive: 0.988

Q: Which relative growth does the source give for CN1C(=O)c2cc(NC(=O)c3cscn3)ccc2OC[C@H]2O[C@H](CC(=O)N3CCOCC3)CC[C@H]21 here?
A: inactive: 0.985

Q: With COCC(=O)N1C[C@@H](C)[C@H](OC)CN(C)C(=O)c2ccc(NC(=O)Nc3ccccc3)cc2OC[C@@H]1C as the molecule, how does the relative growth read?
A: inactive: 1.02

Q: Cc1ccc(S(=O)(=O)N(C)C[C@@H]2OCCCC[C@@H](C)Oc3ccc(NS(C)(=O)=O)cc3C(=O)N([C@@H](C)CO)C[C@H]2C)cc1 was tested. Which relative growth did it give?
A: inactive: 0.987

Q: For C[C@H](CO)N1C[C@H](C)[C@H](CN(C)S(C)(=O)=O)Oc2ncc(C#CC3(O)CCCC3)cc2C1=O, which relative growth is on record?
A: inactive: 0.983

Q: With COc1ccc(NC(=O)N(C)C[C@H]2OCCCC[C@@H](C)Oc3ccc(NS(=O)(=O)c4ccc(Cl)cc4)cc3C(=O)N([C@@H](C)CO)C[C@H]2C)cc1 as the molecule, how does the relative growth read?
A: inactive: 1.05

Q: For CC(C)(C)OC(=O)N1CC2(CNC(=O)O2)C1, which relative growth is on record?
A: inactive: 0.876

Q: C[C@@H]1CN([C@H](C)CO)C(=O)CCCn2cc(nn2)CO[C@@H]1CN(C)Cc1ccc2c(c1)OCCN2C was tested. Which relative growth did it give?
A: inactive: 1.02

Q: How did the relative growth turn out when Cc1ccc(S(=O)(=O)Nc2ccc3c(c2)CC(=O)N([C@@H](C)CO)C[C@H](C)[C@H](CN(C)Cc2ccncc2)O3)cc1 was run?
A: inactive: 0.978

Q: COc1c(O)cccc1O was tested. Which relative growth did it give?
A: inactive: 0.843

Q: Which relative growth does the source give for C[C@@H]1CCCCO[C@@H](CN(C)S(=O)(=O)c2cn(C)cn2)[C@H](C)CN([C@@H](C)CO)C(=O)c2cc(NC(=O)Nc3ccc(C(F)(F)F)cc3)ccc2O1 here?
A: inactive: 1.01

Q: Which relative growth does the source give for O=C(N[C@@H]1CC[C@@H](CCNS(=O)(=O)c2ccccc2)O[C@H]1CO)c1cnccn1 here?
A: inactive: 0.979

Q: Which relative growth does the source give for CC1CCC2(C(=O)O)CCC3(C)C(=CCC4C5(C)CCC(O)C(C)(C)C5CCC43C)C2C1C (stereo not drawn) here?
A: inactive: 1.01

Q: With CC(C)NC(=O)N(C)C[C@H]1Oc2ccc(NS(=O)(=O)c3ccc(F)cc3)cc2C(=O)N([C@@H](C)CO)C[C@@H]1C as the molecule, how does the relative growth read?
A: inactive: 0.998

Q: Which relative growth does the source give for C[C@@H]1CCCCO[C@H](CN(C)C(=O)Nc2ccc3c(c2)OCO3)[C@H](C)CN([C@H](C)CO)C(=O)c2cc(NS(=O)(=O)c3ccc(F)cc3)ccc2O1 here?
A: inactive: 0.998

Q: For CCOc1ccc(S(=O)(=O)[O-])c2cccnc12.[Na+], which relative growth is on record?
A: inactive: 1.1

Q: For COc1ccc(cc1)CN1C[C@]2(CN(C2)S(=O)(=O)c2cn(cn2)C)c2c([nH]c3cc(ccc23)OC)[C@@H]1CO, which relative growth is on record?
A: inactive: 0.995

Q: For COCC(=O)NCc1n[nH]c(=O)c2ccccc12, which relative growth is on record?
A: inactive: 0.968

Q: How did the relative growth turn out when Cc1cc2nc3c(=O)[nH]c(=O)nc-3n(CC(O)C(O)C(O)CO)c2cc1C (stereo not drawn) was run?
A: inactive: 0.984
